From PubChem BioAssay AID463173 (ICCB-Longwood Screening Facility, Harvard Medical School, 2010)
Screen size: about 52,000 compounds; about 4,300 (8.3%) were called active. Rule as the data show it: active = survival mostly below about 52% (no sharp cut-off); inactive = mostly above about 56%. The list shows a part of the results.

Test system: DeltatarO mutant
Assay: S. aureus survival, RN4220 and DeltatarO strains – OD600, teichoic acid synthesis inhibitors, primary screen (AID 463173)
Conditions: S. aureus RN4220 wild type/DeltatarO growth, OD600, 18 h, hits give low values, screened at 18.75 µg/mL (by protocol)

| SMILES | survival |
| --- | --- |
| CC(=O)c1ccc(S(=O)(=O)Nc2ccc(-c3ccc(N4CCCCCC4)nn3)cc2)cc1 | inactive: 75% |
| Cc1ccc2c(=O)cc(C(=O)Nc3ccc(S(=O)(=O)N4CCC(C)CC4)cc3)oc2c1C | inactive: 60% |
| Fc1ccc(CN(Cc2ccco2)Cc2nnnn2CCc2ccccc2)cc1 | inactive: 93% |
| Cc1ccc2nc(NS(C)(=O)=O)sc2c1 | inactive: 78% |
| Nc1c(C(=O)NCc2ccc(Cl)cc2Cl)nnn1Cc1ccc(Br)cc1 | active: 45% |
| CC(C)CCNC(=O)C1CC(=O)N(c2ccccc2)C1 (stereo not drawn) | inactive: 67% |
| COc1ccc(OCC(=O)Nc2cc(-c3ccccc3F)nn2-c2ccccc2)cc1 | inactive: 92% |
| CCc1ccc(CNC(=O)c2cc3cc(S(=O)(=O)N4CCCCC4)ccc3n2C)cc1 | inactive: 60% |
| CCCn1ccc2c(OCC(=O)Nc3cc(C)ccc3C)cccc2c1=O | inactive: 99% |
| Cc1ccc(S(=O)(=O)NCC2CCC(C(=O)NCc3ccc(F)cc3)CC2)cc1 (stereo not drawn) | inactive: 72% |
| CSc1ccc(CNC(=O)C2CCCN(S(=O)(=O)N(C)c3ccc(F)cc3)C2)cc1 (stereo not drawn) | inactive: 73% |
| COc1cccc(-c2cn3c(n2)sc2cc(C(=O)NCCCc4ccccc4)ccc23)c1 | inactive: 54% |
| Cc1nn(Cc2ccc(Cl)c(Cl)c2)c(C)c1NC(=O)c1noc2c1CCc1ccccc1-2 | active: 46% |
| CCc1ccc2c(c1)c(=O)c(S(=O)(=O)c1ccc(Cl)cc1)cn2CC | inactive: 78% |
| COc1cccc(CNCCSc2nnnn2C)c1OCc1ccccc1 | inactive: 79% |
| COc1ccccc1CC(=O)Nc1cccc(C)n1 | inactive: 97% |
| COC(=O)CC1Oc2ccccc2-n2cc(-c3ccc(C)cc3)nc21 (stereo not drawn) | inactive: 64% |
| CCSc1nsc(NC(=O)Nc2cccc(F)c2)n1 | active: 1% |
| COc1ccc(/C=N/NC(=O)c2ccc3c(c2)NC(=O)C(C)(C)O3)cc1OC | inactive: 78% |
| COCCNC(=O)CSc1nc(-c2cc(OC)c(OC)c(OC)c2)[nH]c1-c1ccc(Cl)cc1 | inactive: 91% |
| CCOCCCn1c(SCC(=O)OCC)nc2c(sc3ccccc32)c1=O | inactive: 124% |
| CC1CCN(c2ncccc2C(=O)NC2CCCCC2)CC1 | inactive: 76% |
| Cc1ccc(S(=O)(=O)N(CCO)Cc2cc3cc(C)c(C)cc3[nH]c2=O)cc1 | inactive: 72% |
| Cc1cccc(C(C)C)c1NC(=O)C1CCCN1S(=O)(=O)c1cccc2nsnc12 (stereo not drawn) | inactive: 65% |

| SMILES | survival |
| --- | --- |
| Cc1ccc(C(=O)CSc2nc(-c3ccccc3)nc3c2CCCC3)c(C)c1 | inactive: 47% |
| CCC1CN(C(=O)N2CCC(C(=O)NCCc3ccccc3Cl)CC2)c2cc(C)ccc2O1 (stereo not drawn) | inactive: 74% |
| C=CCn1cc(F)c(=O)n(CC=C)c1=O | inactive: 75% |
| COc1cc(NC(=O)CN2c3ccccc3S(=O)(=O)c3ccccc32)cc(OC)c1 | inactive: 69% |
| CCN(CC)S(=O)(=O)Cc1ccccc1 | inactive: 77% |
| Cc1nc2ccccc2n1C(=O)CCC(=O)O | inactive: 84% |
| Cc1ccc(Nc2nnc(-c3ccc(C)c(S(=O)(=O)N4CCN(C)CC4)c3)c3ccccc23)cc1 | inactive: 80% |
| CCOc1c(C)cc(-c2ncccc2O)cc1C | inactive: 72% |
| CCc1ccc(NC(=O)CN(c2ccc(C)cc2)S(=O)(=O)c2cccs2)cc1 | inactive: 69% |
| COc1ccc(-c2cc(C)no2)cc1S(=O)(=O)N1CCc2ccccc21 | inactive: 67% |
| Cn1c(=O)c2c(SCC(=O)Nc3ccccc3C(F)(F)F)nc(C3CCCC3)nc2n(C)c1=O | inactive: 87% |
| Cc1ccc(Cl)cc1NC(=O)Nc1nnc(N(C)Cc2ccccc2)s1 | inactive: 66% |
| Cc1ccc(CN(C(=O)c2ccccc2)c2ccccn2)o1 | inactive: 103% |
| O=C(O)CCCCn1c(SCC(=O)Nc2ccccc2C(F)(F)F)nc2ccsc2c1=O | inactive: 100% |
| Cc1oc2c(c1C(=O)NCc1cc(C(=O)O)co1)CCCC2 | inactive: 83% |
| CCc1ccc(C(=O)CC2(O)C(=O)N(C(C)C)c3ccccc32)cc1 (stereo not drawn) | inactive: 79% |
| CCCCn1cc(S(=O)(=O)c2ccc(OC)cc2)c(=O)c2cc(CC)ccc21 | inactive: 82% |
| O=C(Cc1ccc(F)cc1)Nc1nncs1 | inactive: 99% |
| O=S(=O)(c1ccccc1)c1nnn2c1nc(NC1CCCCC1)c1sccc12 | inactive: 71% |
| Cc1ccc(OCCCCn2nnc3sc4c(c3c2=O)CCCC4)cc1 | active: 48% |
| N=C(N=C(N)N)N1CCCc2ccccc21 | inactive: 98% |
| O=C(CNCC1CCCO1)NCc1ccco1 (stereo not drawn) | inactive: 97% |
| NC(=O)CSc1nnc(-c2ccco2)n1Cc1ccco1 | inactive: 74% |
| Cc1ccc(NC(=O)CSc2nc(=O)n(CCN3CCOCC3)c3c2CCC3)c(C)c1 | inactive: 73% |

| SMILES | survival |
| --- | --- |
| Cc1ccc(C(=O)Nc2ccc(S(=O)(=O)N3CCC(c4nc5ccccc5s4)CC3)cc2)cc1 | inactive: 61% |
| Cc1ccc(OCC(=O)Nc2nnc(S(=O)(=O)N3c4ccccc4CC3C)s2)cc1 (stereo not drawn) | active: 34% |
| Cc1ccc(NC(=O)c2nc(S(C)(=O)=O)ncc2N(Cc2ccco2)Cc2cccs2)c(C)c1 | active: 38% |
| CC(=O)N1CCc2nc3sc(C(=O)c4ccc(F)cc4)c(N)c3c(C(F)(F)F)c2C1 | inactive: 54% |
| CCc1ccc(NC(=O)C(=O)NCC(c2cccnc2)N2CCN(c3ccc(F)cc3)CC2)cc1 (stereo not drawn) | inactive: 85% |
| CC(=O)c1cccc(NC(=O)c2nc(-c3ccccc3)n(-c3cccc(Cl)c3)n2)c1 | inactive: 68% |
| COc1ccc(-c2nn3c(=O)cc(CN4CCN(C(=O)c5ccc(OC)c(OC)c5)CC4)nc3s2)cc1 | inactive: 98% |
| CCOc1ccccc1CNc1ccc2cc(S(=O)(=O)N3CCC(C)CC3)ccc2n1 | inactive: 70% |
| CCc1ccc2[nH]c(=O)c(CN(CCCN3CCOCC3)C(=S)NC)cc2c1 | inactive: 88% |
| COc1ccc(-c2noc(N(c3nc(-c4ccc(OC)c(OC)c4)no3)c3ccccc3OC)n2)cc1OC | inactive: 115% |
| CC(C)(C)c1ccc(C(=O)Nc2ccc3c(c2)CCCN3C(=O)c2cccs2)cc1 | inactive: 80% |
| Cc1ccc(C)c(N2CCN(C(=O)NC3CCCCC3)CC2)c1 | inactive: 91% |
| CCOc1ccccc1NC(=O)c1ccc2c(Cl)c3c(nc2c1)CCC3 | inactive: 82% |
| CC(=O)c1cc(-c2ccccc2)n(CCC(=O)NCc2ccc(C)cc2)c1C | inactive: 76% |
| CC(C(=O)O)c1nn(C)c(=O)c2ccccc12 (stereo not drawn) | inactive: 92% |
| CCOC(=O)c1c(C)n(C2CCCCC2)c2ccc(OCC(N)=O)cc12 | inactive: 69% |
| CCOc1ccccc1Nc1sc(C(=O)c2ccccc2)c(N)c1C(=O)Nc1ccccc1 | inactive: 102% |
| CCOc1ccc(-n2ccnc2SCC(=O)Nc2nc3ccc(C)cc3s2)cc1 | inactive: 67% |
| Cc1cc(-c2ccc(C)c(S(=O)(=O)NC3CCCCC3)c2)on1 | inactive: 83% |
| Cc1nn(-c2ccccc2)c2c1N(CC(=O)N1CCN(c3ccc(F)cc3)CC1)C(=O)CS2 | inactive: 81% |
| O=C(Cn1c(=O)n(Cc2cccs2)c(=O)c2cccnc21)Nc1ccc(F)cc1 | inactive: 87% |
| COc1ccc(-c2ccc(SCC(=O)N3CCC(C)CC3)nn2)cc1 | inactive: 94% |
| COc1cccc2cc(C(=O)Nc3ccc(F)c(F)c3)c(=O)oc12 | inactive: 77% |
| COc1ccc(CNC(=O)c2cc3sccc3n2CC(=O)c2ccccc2)cc1 | inactive: 80% |

| SMILES | survival |
| --- | --- |
| Cc1ccccc1S(=O)(=O)Cc1ccc(C(=O)NC2CCC(C)CC2)o1 (stereo not drawn) | inactive: 80% |
| CCOc1ccc(NC(=O)Cn2c(=O)n(-c3ccccc3)c(=O)c3ccc(C(=O)NCc4ccc5c(c4)OCO5)cc32)cc1 | inactive: 107% |
| Cc1ccc(CNC(=O)C2CCN(S(=O)(=O)c3ccc4[nH]c(=O)ccc4c3)CC2)cc1 | inactive: 101% |
| Cc1nc2nc[nH]n2c(=O)c1CCC(=O)Nc1ccc(F)cc1 | inactive: 99% |
| CCc1nc2cccnc2n1CCNC(=O)NC1CCCCC1 | inactive: 103% |
| CC(C)CCN1C(=O)c2ccccc2CC1(C)C(=O)NC1CCC(C)CC1 (stereo not drawn) | inactive: 100% |
| O=C(CSc1nccn1C1CCCC1)Nc1ccc(C(F)(F)F)cc1 | inactive: 101% |
| CC(C)c1ccc(-c2nc(C(N)=O)c3c(n2)n(-c2ccc4c(c2)OCO4)c(=O)n3C)cc1 | inactive: 76% |
| COc1ccc(NC(=O)C2CCN(S(=O)(=O)c3ccc4[nH]c5c(c4c3)CCCCC5)CC2)cc1 | inactive: 113% |
| CCOc1ccc(NC(=O)Cn2cc(S(=O)(=O)NC)c(S(=O)(=O)NC)c2)cc1 | inactive: 57% |
| O=C(Nc1cccc(F)c1)[C@H](CSCc1ccccc1)N1Cc2ccccc2C1=O | inactive: 60% |
| Cc1ccc(Cl)cc1-n1c(=O)c2sc3ccccc3c2n(Cc2ccccc2)c1=O | inactive: 95% |
| CCCCCSc1nnc(-c2ccc(Br)cc2)o1 | active: -1% |
| CCOc1cc(-c2nnc(SCC(=O)NC3CCCC3)nc2-c2ccc(OC)c(OCC)c2)ccc1OC | inactive: 93% |
| CC(=O)Nc1ccc2sc(C)nc2c1 | inactive: 67% |
| COc1ccccc1Nc1cccc2nonc12 | inactive: 76% |
| CSc1ncc(C(=O)N2CCN(c3cc(C)ccc3C)CC2)c(C)n1 | inactive: 72% |
| Cc1cccc(N2CCN(C(=O)CN3C(=O)COc4ccc(S(=O)(=O)N5CCCCCC5)cc43)CC2)c1C | inactive: 73% |
| CN(C)C(=O)N(C)C1CCS(=O)(=O)C1 (stereo not drawn) | inactive: 105% |
| CCOC(=O)C1=C(C)NC(=O)NC1c1cn(-c2ccccc2)nc1-c1ccc(OCC)cc1 (stereo not drawn) | inactive: 58% |
| Cc1nc2ccc(S(=O)(=O)N3CCCCC3)cc2s1 | inactive: 95% |
